Measurements reported in article PMC4336329 (PLoS ONE, 2015).
Screen size: about 310,000 compounds; about 14,000 (4.5%) showed an effect of 50% or more. Effects have a minus sign here. The list shows a part of the results.

The compounds below were run against human ether-à-go-go-related gene (hERG) potassium channel (human, UniProt Q12809) (assay: primary screen, population patch clamp on CHO cells stably expressing hERG).
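Further: peak tail current of the secondary pulse compared with the same well before compound.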

Sequence of human ether-à-go-go-related gene (hERG) potassium channel (Q12809 whole entry, looked up): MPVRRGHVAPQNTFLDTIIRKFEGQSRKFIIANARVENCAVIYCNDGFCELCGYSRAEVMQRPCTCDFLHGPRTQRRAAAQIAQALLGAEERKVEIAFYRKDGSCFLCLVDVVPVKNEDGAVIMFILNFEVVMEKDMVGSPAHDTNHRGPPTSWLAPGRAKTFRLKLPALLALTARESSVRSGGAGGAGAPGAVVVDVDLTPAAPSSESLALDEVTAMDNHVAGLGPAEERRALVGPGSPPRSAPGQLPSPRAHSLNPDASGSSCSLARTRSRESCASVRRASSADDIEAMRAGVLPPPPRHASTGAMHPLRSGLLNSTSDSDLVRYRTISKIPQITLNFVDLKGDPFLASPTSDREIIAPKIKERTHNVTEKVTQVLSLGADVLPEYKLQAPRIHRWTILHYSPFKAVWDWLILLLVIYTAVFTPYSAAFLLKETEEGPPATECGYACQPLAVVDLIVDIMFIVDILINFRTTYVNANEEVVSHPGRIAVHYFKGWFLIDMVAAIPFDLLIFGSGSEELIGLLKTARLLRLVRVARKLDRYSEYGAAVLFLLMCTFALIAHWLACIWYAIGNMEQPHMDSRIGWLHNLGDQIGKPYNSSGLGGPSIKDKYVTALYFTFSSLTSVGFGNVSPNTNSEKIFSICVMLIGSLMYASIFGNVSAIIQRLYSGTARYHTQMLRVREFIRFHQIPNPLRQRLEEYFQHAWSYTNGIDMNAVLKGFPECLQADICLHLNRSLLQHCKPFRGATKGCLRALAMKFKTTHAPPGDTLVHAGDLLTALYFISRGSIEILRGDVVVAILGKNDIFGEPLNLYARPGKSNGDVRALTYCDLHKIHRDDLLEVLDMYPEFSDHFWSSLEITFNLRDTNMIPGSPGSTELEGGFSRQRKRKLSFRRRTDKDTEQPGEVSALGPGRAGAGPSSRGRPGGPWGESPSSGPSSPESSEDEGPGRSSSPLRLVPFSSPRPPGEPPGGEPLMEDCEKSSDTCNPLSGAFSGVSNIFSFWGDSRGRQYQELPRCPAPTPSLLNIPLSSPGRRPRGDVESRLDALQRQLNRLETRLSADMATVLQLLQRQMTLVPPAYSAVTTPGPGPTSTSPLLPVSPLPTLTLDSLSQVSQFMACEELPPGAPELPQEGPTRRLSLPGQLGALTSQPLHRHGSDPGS

SMILES | hERG current change (%, negative = inhibition) at 10uM [%]
O=C(Cn1cnc(S(=O)(=O)N2CCCC2)c1)Nc1ccccc1 | 11.7
Cc1ccc2oc(C(=O)Nc3cc(C)on3)c(C)c2c1 | -1.98
CCN(CC)S(=O)(=O)c1cccc(-c2nnc(SCc3nc4ccccc4s3)o2)c1 | -3.82
COC(=O)c1ccc(N2CCN(C)CC2)c(NC(=O)c2ccc(-c3ccc(Cl)cc3)o2)c1 | 7.11
COc1ccc2ccccc2c1CN(C)Cc1ccccc1.O=C(O)C(=O)O | -51.7
COC(=O)c1nc(N)sc1C | 9.83
Cc1cc(C)c(S(=O)(=O)N2CCCC(C(=O)NC3CC3)C2)c(C)c1 (centres unmarked) | -47.2
O=c1oc2ccccc2c(N2CCC(c3ccccc3)CC2)c1[N+](=O)[O-] | -3.83
O=c1oc(-c2cccc(Cl)c2)nc2c1cnn2-c1ccccc1 | 3.11
COc1cc([N+](=O)[O-])ccc1NC(=O)CSc1nncn1-c1cccnc1 | -10.5
COc1cc(NC(=O)c2ccc(C)cc2)c(OC)cc1NC(=O)CN1CCOCC1 | -11.9
C[C@]12CC[C@H]3C(CCC4(O)CC(O)CC[C@]34C=O)C1=CC[C@H]2c1ccc(=O)oc1 (some centres unmarked) | 12.4
O=S(=O)(Nc1cc(Cl)cc(Cl)c1)N1CCOCC1 | 3.6
Cc1cnc(C(=O)NC(Cc2ccccc2)c2ccccc2)cn1 (centres unmarked) | 0.29
Cn1c(=O)nc2n(Cc3ccccc3)c3ccccc3cc-2c1=O | -1.36
O=C(CCN1CCN(c2ccccc2)CC1)NNC(=O)Cc1ccccc1Cl | 5.76
CC(C)c1ccc(/C=C/C(=O)Nc2nc3ccc([N+](=O)[O-])cc3s2)cc1 | -6.32
CCOC(=O)c1c(C)c(P(=S)(N2CCOCC2)N2CCOCC2)n(C)c1C | -11.7
O=C(CN1C(=O)NC2(CCCCCC2)C1=O)NCCc1ccc(F)cc1 | -13
COc1ccc(Cn2ccnc2)cc1[N+](=O)[O-] | -0.186
O=C(NC1CC1)C1CCN(C2CCN(C(=O)/C=C/c3cccs3)CC2)CC1 | -34.4
Cc1cc(C(=O)N2CCCC(Nc3ccc(F)cc3)C2)n(C)n1 (centres unmarked) | 9.51
NS(=O)(=O)c1ccc(NC(=O)COC(=O)C2CC(=O)N(Cc3ccccc3)C2)cc1 (centres unmarked) | 36.4

SMILES | hERG current change (%, negative = inhibition) at 10uM [%]
CCc1c(C)sc(NC(=S)N2CCN(CC)CC2)c1C(=O)OC | 36.1
COc1ccc(NC(=O)NNC(=O)COc2cc(C)c(Cl)c(C)c2)c(OC)c1 | 20.8
COCCSc1nnc(NC(=O)C2CC(=O)N(C3CCCC3)C2)s1 (centres unmarked) | 21.8
Cc1ccc(S(=O)(=O)c2nc(S(=O)(=O)c3ccc(C)cc3)c(N3CCN(CCO)CC3)s2)cc1 | -26.1
Cc1nc2n[nH]c(N)c2c2c1COC(C)(C)C2 | -10
CN(C)S(=O)(=O)c1ccc(Cl)c(C(=O)OCC(=O)NC(=O)NC2CCCC2)c1 | 4.07
N#C/C(=C/c1ccc(-c2ccccc2[N+](=O)[O-])o1)C(N)=O | 49.1
CC1Sc2ccc(C(=O)Nc3ccccc3OC(F)F)cc2NC1=O (centres unmarked) | 3.79
CC(=O)c1ccc(N2CCN(C(=O)c3cc4c(-c5ccccc5F)nn(C)c4s3)CC2)cc1 | -20.7
COC(=O)C1(C)Nc2ccccc2C(=O)N1c1ccccc1C (centres unmarked) | -4.22
COc1ccc(/C=C/C(=O)O)cc1S(=O)(=O)NCc1cccnc1 | 3.02
O=C(c1cc(COc2ccc(F)cc2Cl)on1)N1CC[C@@H]2CCCC[C@H]2C1 | 12.6
COc1ccc2cc(C(c3nnnn3Cc3ccc(F)cc3)N3CCCCCC3)c(=O)[nH]c2c1 (centres unmarked) | -23.3
O=C(OCCN1C(=O)c2cccc3c(N4CCOCC4)ccc(c23)C1=O)c1ccc(Cl)cc1 | -0.964
Cc1cccc(OCC(=O)NCCCNC(=O)c2ccncc2)c1 | 3.39
CCCCN(CC(O)COc1cccc(C)c1)CC(O)COc1cccc(C)c1 (centres unmarked) | -81.7
COc1ccc(-c2nc(NC(=O)c3nc4nccc(C)n4n3)sc2C)cc1 | 14.1
O=C(CSc1nc2c(c(=O)n1-c1ccc(Cl)cc1)SCC2)Nc1ccc2c(c1)OCCO2 | 2.91
O=C(O)c1cccc2c1C(=O)N(Cc1ccccc1)C2 | -18.3
Oc1ccc(Br)cc1C=Nc1cccn2cc(-c3ccccc3)nc12 | 21.1
CCNC(=S)NS(=O)(=O)c1ccccc1 | 18.7
CCn1nnnc1SCC(=O)Nc1cc(OC)cc(OC)c1 | 11.8
O=C(Nc1cccnc1)c1cc(-c2ccc(Br)cc2)on1 | 13.6

SMILES | hERG current change (%, negative = inhibition) at 10uM [%]
Cc1c(C(=O)N2CCN(c3ccccc3)CC2)oc2c(F)cccc12 | 9.11
COc1cccc(CNC(=O)CCCc2nnc3n(C)c(=O)c4sccc4n23)c1 | -22.2
CCNC(=O)CC1C(=O)N(c2ccc(OC)cc2)C(=S)N1CCc1ccncc1 (centres unmarked) | -30.7
Cc1nccn1Cc1ccc(Cl)nc1 | 16.6
COC(=O)c1ccc(C(=O)N=c2sccn2C)cc1 | -1.71
COc1ccc(NC(=O)c2sc3ncn(CC(=O)N4CCN(c5ccccn5)CC4)c(=O)c3c2C)cc1OC | 2.08
CCCN(CCC)CCCNC(=O)C1CCN(S(=O)(=O)c2cccc3nsnc23)CC1 | -4.02
Cc1ccccc1OCC(=O)NNC(=O)c1ccoc1C | 6.75
COc1ccc(-c2c(-c3ccccc3OC)sc3ccccc23)cc1 | 12.3
Clc1ccc(Oc2cnns2)cc1Cl | 0.0504
O=c1oc2c(O)cccc2cc1-c1nc2ccccc2[nH]1 | 12.2
CCOc1ccc(NC(=O)CNC(=O)c2ccco2)cc1 | 22.3
Cc1ccc(NC(=O)c2ccc3nsnc3c2)c(C)c1 | 17.7
C/C(=N\NC(=O)CSCc1ccc([N+](=O)[O-])cc1)c1ccccc1 | -18
CCC1(CC)NC(=O)N(CC(=O)OCC(=O)Nc2ncc(Cl)cc2Cl)C1=O | -4.07
Cn1nnnc1SCC(=O)Nc1c(Cl)cccc1Cl | 10.8
CCOC(=O)N1CCN(C(=O)c2ccc(SC)cc2OC)CC1 | -2.46
Fc1ccccc1COc1cccc(/C=N/n2cnnc2)c1 | -18.6
NC(=O)c1cnccn1 | 10.4
CCOC(=O)C1=C(C)NC(=O)C1CC(=O)Nc1ccccc1 (centres unmarked) | 14.4
COc1cccc(C(=O)NCCSc2c(C)[nH]c3ccccc23)c1OC | -1.27
O=C(NCCCN1CCCC1=O)c1cc(NS(=O)(=O)c2ccc(F)cc2)cc(NS(=O)(=O)c2ccc(F)cc2)c1 | -4.88
O=C(Oc1c(Cl)cc(Cl)c2cccnc12)c1cccc([N+](=O)[O-])c1 | 17.5

SMILES | hERG current change (%, negative = inhibition) at 10uM [%]
Cc1c(Cl)cccc1N=C(N)N=C(N)N | 7.51
O=C1c2ccccc2NC(c2cccnc2)N1c1ccccc1F (centres unmarked) | 6.9
COc1cc(-c2nnc(SCC(=O)c3ccc(C)cc3)o2)cc(OC)c1OC | -2.59
CNC(=O)COC(=O)c1cc(F)c(F)cc1Cl | 14.4
O=C(CCNC(=O)c1ccc([N+](=O)[O-])cc1)Nc1cccc(S(=O)(=O)N2CCCCC2)c1 | -55.2
O=C(OCC(=O)N1CCCc2ccccc21)c1cc(Cl)ccc1O | 21.9
Cc1ccc(S(=O)(=O)Nc2nncs2)cc1 | -1.67
CCN(CC)S(=O)(=O)c1ccc(S(=O)(=O)N(CC(=O)Nc2ccccc2)Cc2ccco2)cc1 | -6.44
Cn1c(=O)c2c(-c3ccc(C(C)(C)C)cc3)n(N3CCOCC3)cc2n(C)c1=O | -26.7
COc1cc(OC)cc(C(=O)N[C@H](C(=O)Nc2ccccc2N2CCOCC2)C(C)C)c1 | -28.2
CC1=C(C(=O)OCc2ccccc2)C(c2cccc(F)c2)NC(=O)N1 (centres unmarked) | 9.86
COc1ccc(N2CCN(C(=O)CSc3ncn[nH]3)CC2)cc1 | 5.92
Cc1ccc(C2=NNC(c3ccc(Cl)cc3)=Nc3ccccc32)o1 | -10.7
O=C(NCCOc1ccccc1)c1cc2ccccc2o1 | -2.6
CN1CCN(c2ccncc2S(=O)(=O)N2CCCCC2)CC1 | 14.7
COc1ccc(C(N)CCc2ccco2)cc1.Cl (centres unmarked) | 1.39
Cc1ccc(C(=O)Nc2cc3c(oc2=O)CCCC3=O)cc1 | -2.47
CCOc1cc(N2CCOCC2)c(OCC)cc1NC(=O)Cc1ccc(OC)c(OC)c1 | 2.9
CC1CCc2sc(-c3n[nH]c(=S)o3)cc2C1 (centres unmarked) | 17.7
O=C(c1cccc([N+](=O)[O-])c1)N1CCc2ccccc21 | 17.5
